Assay results: the supplement of paper PMC8728848
Some of the results follow.

Columns and labels:
Experiment in all cases: glycan array binding signal (z-score within array); higher = stronger binding
Settings in all cases: glycan notation: IUPAC condensed, linker removed
[1] = molecular target: Gal3S(b1-3)[Fuc(a1-4)]GlcNAc
Procedure, shortened: (§1)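 Glycan array data came from 3228 arrays in the Consortium for Functional Glycomics database, and only arrays with an available protein sequence were kept. Glycan names were put into IUPAC-condensed notation, and columns mapping to the same glycan were averaged. The binding signal is a within-array Z-score, averaged across arrays of one protein sequence run at different concentrations or buffers and across linkers. A negative Z-score can be read as non-binding.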

Gal3S(b1-4)Glc = molecular target: Gal3S(b1-4)Glc
Procedure, shortened: as §1

Gal3S(b1-4)Glc6S = molecular target: Gal3S(b1-4)Glc6S
Procedure, shortened: as §1

Gal3S(b1-4)GlcNAc = molecular target: Gal3S(b1-4)GlcNAc
Procedure, shortened: as §1

[2] = molecular target: Gal3S(b1-4)[Fuc(a1-3)]Glc6S
Procedure, shortened: as §1

[3] = molecular target: Gal3S(b1-4)[Fuc(a1-3)]GlcNAc
Procedure, shortened: as §1

[4] = molecular target: Gal3S(b1-4)[Fuc(a1-3)]GlcNAc6S
Procedure, shortened: as §1

Gal3S4S(b1-4)GlcNAc = molecular target: Gal3S4S(b1-4)GlcNAc
Procedure, shortened: as §1

Gal3S6S(b1-4)GlcNAc = molecular target: Gal3S6S(b1-4)GlcNAc
Procedure, shortened: as §1

Gal3S6S(b1-4)GlcNAc6S = molecular target: Gal3S6S(b1-4)GlcNAc6S
Procedure, shortened: as §1

Gal4S(b1-4)GlcNAc = molecular target: Gal4S(b1-4)GlcNAc
Procedure, shortened: as §1

Gal4S6S(b1-4)GlcNAc = molecular target: Gal4S6S(b1-4)GlcNAc
Procedure, shortened: as §1

Gal6P(b1-4)GlcNAc = molecular target: Gal6P(b1-4)GlcNAc
Procedure, shortened: as §1

Gal6S(b1-3)GlcNAc = molecular target: Gal6S(b1-3)GlcNAc
Procedure, shortened: as §1

Gal6S(b1-3)GlcNAc6S = molecular target: Gal6S(b1-3)GlcNAc6S
Procedure, shortened: as §1

Gal6S(b1-4)Glc = molecular target: Gal6S(b1-4)Glc
Procedure, shortened: as §1

Gal6S(b1-4)Glc6S = molecular target: Gal6S(b1-4)Glc6S
Procedure, shortened: as §1

Gal6S(b1-4)GlcNAc = molecular target: Gal6S(b1-4)GlcNAc
Procedure, shortened: as §1

Gal6S(b1-4)GlcNAc6S = molecular target: Gal6S(b1-4)GlcNAc6S
Procedure, shortened: as §1

GalNAc(a1-3)Gal = molecular target: GalNAc(a1-3)Gal
Procedure, shortened: as §1

GalNAc(a1-3)GalNAc = molecular target: GalNAc(a1-3)GalNAc
Procedure, shortened: as §1

[5] = molecular target: GalNAc(a1-3)GalNAc(b1-3)Gal(a1-4)Gal(b1-4)Glc
Procedure, shortened: as §1

[6] = molecular target: GalNAc(a1-3)GalNAc(b1-3)Gal(a1-4)Gal(b1-4)GlcNAc
Procedure, shortened: as §1

GalNAc(b1-3)Gal = molecular target: GalNAc(b1-3)Gal
Procedure, shortened: as §1

[7] = molecular target: GalNAc(b1-3)Gal(a1-4)Gal(b1-4)GlcNAc
Procedure, shortened: as §1

[8] = molecular target: GalNAc(b1-3)Gal(a1-4)Gal(b1-4)GlcNAc(b1-3)Gal(b1-4)Glc
Procedure, shortened: as §1

[9] = molecular target: GalNAc(b1-3)Gal(a1-6)Gal(b1-4)Glc
Procedure, shortened: as §1

GalNAc(b1-3)GalNAc = molecular target: GalNAc(b1-3)GalNAc
Procedure, shortened: as §1

GalNAc(b1-3)GlcNAc = molecular target: GalNAc(b1-3)GlcNAc
Procedure, shortened: as §1

GalNAc(b1-4)Gal(b1-4)Glc = molecular target: GalNAc(b1-4)Gal(b1-4)Glc
Procedure, shortened: as §1

GalNAc(b1-4)GlcNAc = molecular target: GalNAc(b1-4)GlcNAc
Procedure, shortened: as §1

[10] = molecular target: GalNAc(b1-4)GlcNAc(b1-2)Man
Procedure, shortened: as §1

[11] = molecular target: GalNAc(b1-4)GlcNAc(b1-2)Man(a1-3)[GalNAc(b1-4)GlcNAc(b1-2)Man(a1-6)]Man(b1-4)GlcNAc(b1-4)GlcNAc
Procedure, shortened: as §1

[12] = molecular target: GalNAc(b1-4)GlcNAc(b1-3)GalNAc(b1-4)GlcNAc
Procedure, shortened: as §1

GalNAc(b1-4)GlcNAc6S = molecular target: GalNAc(b1-4)GlcNAc6S
Procedure, shortened: as §1

GalNAc(b1-6)GalNAc = molecular target: GalNAc(b1-6)GalNAc
Procedure, shortened: as §1

GalNAc3S(b1-4)GlcNAc = molecular target: GalNAc3S(b1-4)GlcNAc
Procedure, shortened: as §1

B1: Epa6 (Candida glabrata), Q6DTM7_CANGB (protein)
chain: MGSSHHHHHHSSGLVPRGSHMKDDYSSSLSNNNLGWTDPTEFPLGCSPNVTTPKNGLSMELYSYDYLKSGSNPCWDAAYLDPNYPRTGYKSHRLLAKVENVAGNINFYYHAPMGCTSLFDTLPQAYNYRTPLTMTNFTMLLYGYFKPKVTGYHTFTISADDLLFVNFGAGNAFDCCKRESSADDFGNYQAYAVWGSQTAKDDLTVHLDAGLYYPIRIFFNNRDNDGALSLTLKTESDPNPVIDFSDYFYSFDDTKDGCPGLVSYDTS
Q: With B1 as the binder, how does the “glycan array binding signal (z-score)” value [1] read?
A: The value was -0.276.

Q: And the “glycan array binding signal (z-score)” value (Gal3S(b1-4)Glc)?
A: Its value is -0.284.

Q: And the “glycan array binding signal (z-score)” value (Gal3S(b1-4)Glc6S)?
A: The value was -0.267.

Q: And the “glycan array binding signal (z-score)” value (Gal3S(b1-4)GlcNAc)?
A: The value was -0.274.

Q: What about the “glycan array binding signal (z-score)” value [2] of the same binder?
A: The value was -0.067.

Q: What about the “glycan array binding signal (z-score)” value [3] of the same binder?
A: Its value is -0.295.

Q: And the “glycan array binding signal (z-score)” value [4]?
A: The value was -0.254.

Q: What about the “glycan array binding signal (z-score)” value (Gal3S4S(b1-4)GlcNAc) of the same binder?
A: The value was -0.27.

Q: And the “glycan array binding signal (z-score)” value (Gal3S6S(b1-4)GlcNAc)?
A: Its value is -0.306.

Q: And the “glycan array binding signal (z-score)” value (Gal3S6S(b1-4)GlcNAc6S)?
A: The value was -0.263.

Q: And the “glycan array binding signal (z-score)” value (Gal4S(b1-4)GlcNAc)?
A: Its value is -0.326.

Q: What about the “glycan array binding signal (z-score)” value (Gal4S6S(b1-4)GlcNAc) of the same binder?
A: Its value is 2.41.

Q: What about the “glycan array binding signal (z-score)” value (Gal6P(b1-4)GlcNAc) of the same binder?
A: Its value is -0.315.

Q: What about the “glycan array binding signal (z-score)” value (Gal6S(b1-3)GlcNAc) of the same binder?
A: Its value is -0.223.

Q: And the “glycan array binding signal (z-score)” value (Gal6S(b1-3)GlcNAc6S)?
A: Its value is -0.263.

Q: What about the “glycan array binding signal (z-score)” value (Gal6S(b1-4)Glc) of the same binder?
A: Its value is -0.229.

Q: And the “glycan array binding signal (z-score)” value (Gal6S(b1-4)Glc6S)?
A: The value was -0.251.

Q: And the “glycan array binding signal (z-score)” value (Gal6S(b1-4)GlcNAc)?
A: The value was -0.24.

Q: What about the “glycan array binding signal (z-score)” value (Gal6S(b1-4)GlcNAc6S) of the same binder?
A: Its value is -0.303.

Q: What about the “glycan array binding signal (z-score)” value (GalNAc(a1-3)Gal) of the same binder?
A: The value was -0.33.

Q: What about the “glycan array binding signal (z-score)” value (GalNAc(a1-3)GalNAc) of the same binder?
A: The value was -0.326.

Q: What about the “glycan array binding signal (z-score)” value [5] of the same binder?
A: The value was -0.324.

Q: And the “glycan array binding signal (z-score)” value [6]?
A: Its value is -0.277.

Q: And the “glycan array binding signal (z-score)” value (GalNAc(b1-3)Gal)?
A: The value was -0.321.

Q: And the “glycan array binding signal (z-score)” value [7]?
A: The value was -0.126.

Q: And the “glycan array binding signal (z-score)” value [8]?
A: Its value is -0.09.

Q: And the “glycan array binding signal (z-score)” value [9]?
A: The value was -0.309.

Q: What about the “glycan array binding signal (z-score)” value (GalNAc(b1-3)GalNAc) of the same binder?
A: Its value is -0.323.

Q: What about the “glycan array binding signal (z-score)” value (GalNAc(b1-3)GlcNAc) of the same binder?
A: The value was -0.309.

Q: And the “glycan array binding signal (z-score)” value (GalNAc(b1-4)Gal(b1-4)Glc)?
A: The value was -0.277.

Q: And the “glycan array binding signal (z-score)” value (GalNAc(b1-4)GlcNAc)?
A: Its value is -0.234.

Q: And the “glycan array binding signal (z-score)” value [10]?
A: The value was -0.328.

Q: What about the “glycan array binding signal (z-score)” value [11] of the same binder?
A: The value was -0.276.

Q: And the “glycan array binding signal (z-score)” value [12]?
A: Its value is -0.327.

Q: And the “glycan array binding signal (z-score)” value (GalNAc(b1-4)GlcNAc6S)?
A: Its value is -0.325.

Q: And the “glycan array binding signal (z-score)” value (GalNAc(b1-6)GalNAc)?
A: The value was -0.305.

Q: What about the “glycan array binding signal (z-score)” value (GalNAc3S(b1-4)GlcNAc) of the same binder?
A: The value was -0.313.
